Measured values reported in PubChem BioAssay AID1030 (National Center for Advancing Translational Sciences (NCATS), 2008).
In all, about 220,000 compounds went through this assay and about 16,000 (7.3%) were called active. The shares of active, inactive and inconclusive entries below differ from those in the screen. Calls follow the shape of the dose curve; as a rule, active = well fitted inhibition curve with a large enough effect (not every such curve was filed as active); inconclusive = small, poorly fitted or top-dose-only effect, or another doubt; inactive = no such curve, though single readings can be large or run the other way. A potency beside an inconclusive call is a rough fit, not a confirmed value.

Target: Aldehyde dehydrogenase 1A1 (Homo sapiens) (UniProt P00352)
Experiment: qHTS Assay for Inhibitors of Aldehyde Dehydrogenase 1 (ALDH1A1)
Settings: Purified ALDH1A1, NADH fluorescence, propionaldehyde substrate; series mostly up to 75.3 µM
Potency is read from the fitted curve at half-maximal effect; tags tell the direction and shape of the fitted curve.

Chain of UniProt P00352 (P00352 whole entry, looked up): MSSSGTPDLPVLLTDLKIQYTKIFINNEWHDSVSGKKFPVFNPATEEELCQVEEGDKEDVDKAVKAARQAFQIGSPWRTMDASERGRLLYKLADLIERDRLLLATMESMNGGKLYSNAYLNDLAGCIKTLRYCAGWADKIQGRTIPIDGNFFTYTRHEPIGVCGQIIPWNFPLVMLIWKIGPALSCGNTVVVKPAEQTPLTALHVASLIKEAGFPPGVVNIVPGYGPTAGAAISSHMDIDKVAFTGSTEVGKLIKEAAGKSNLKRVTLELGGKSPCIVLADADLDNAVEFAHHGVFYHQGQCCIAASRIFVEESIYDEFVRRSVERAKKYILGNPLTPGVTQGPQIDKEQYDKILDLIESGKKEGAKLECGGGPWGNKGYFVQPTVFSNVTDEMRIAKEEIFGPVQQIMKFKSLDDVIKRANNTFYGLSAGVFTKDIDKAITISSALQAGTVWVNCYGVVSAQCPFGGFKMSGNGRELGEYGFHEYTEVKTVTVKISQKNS

Potency, active:
O=C(CC(Nc1ccccc1)C(=O)O)c1ccccc1 (stereo unspecified) 1.78 µM
Cc1c(C(=O)NNC(=S)Nc2cccc(Cl)c2)nnn1-c1ccccc1 11.2 µM
CC1C/C(=N/NC(=O)c2ccc(CSc3nc4ccccc4[nH]3)cc2)CC(C)(C)C1 (stereo unspecified) 25.1 µM
COc1ccccc1NS(=O)(=O)c1cccc(C(=O)NN=C2CCCCCC2)c1 12.6 µM
COc1ccc(NC(=O)CSC2CC(=O)N(c3ccc4c(c3)OCCO4)C2=O)cc1 (stereo unspecified) 14.1 µM

Potency, inactive:
CCCNC(=O)N1CCN(Cc2ccco2)CC1
Cc1cccc(NC(=S)Nc2cccc(C(F)(F)F)c2)n1
Cc1cc(C)c(NC(=O)Cn2nc(-c3ccccc3)nc2-c2ccccc2)c(C)c1
Cc1ccccc1OCC(=O)N/N=C/c1ccco1
CSc1n[nH]c(=O)n1-c1ccc(Cl)cc1
COC(=O)c1sccc1NC(=O)c1c(C)cc(=O)oc1C
COc1ccc(C2N(c3ccc(C)cc3)CCN2c2ccc(C)cc2)cc1O
Cc1cc(C)cc(-c2nnc(SCC(=O)NCc3cccs3)o2)c1
O=C(O)C1CCN(C(=O)OCc2ccccc2)CC1
COc1ccc(/C=N/Nc2nccnc2Cl)c(OC)c1
NN(CCO)C(=S)Nc1ccc(Cl)cc1
C#CCOCCOCCOCCNc1nc(N2CCOCC2)nc(N2CCN(C(=O)[C@H](C)n3cc(CCCN=C(N)N)nn3)CC2)n1
Cc1cccc(NC(=S)NC(NC(=O)OCc2ccccc2)C(Cl)(Cl)Cl)c1 (stereo unspecified)
CCOC(=O)c1c(Nc2ccccc2)sc(/C=C2\C=Nc3ccccc32)c1O
COCCn1nnnc1CN1CCOCC1
CCC(C)O (stereo unspecified)
COc1ccc(-c2cn(-c3ccccc3)c3[n+]2CCS3)cc1
O=C(c1ccc(S(=O)(=O)NCC2CCCO2)cc1)N1CCN(c2cccc(Cl)c2)CC1 (stereo unspecified)
CC1(C)CCC(C)(C)NC(=S)N1
CCCCC(=O)Nc1nnn(CCC)n1
Cc1cccc(C)c1NC(=O)CN1C(=O)S/C(=C\c2cccn2-c2cccc(C(=O)O)c2)C1=O
CCN(CC)CCNC(=O)c1cc(Sc2nnc(C)s2)nc2ccccc12
Cc1cccc(C(=O)NNC2=C(C(=O)C(F)(F)F)CCC2)c1O
N#CCSc1nnc(CNc2ccc(F)cc2)o1
Cn1c(=O)c2c(nc(SCCN3CCCCC3)n2Cc2ccc(Cl)cc2)n(C)c1=O
CCOc1ccc(N2C(=O)CN(c3cccc4ccccc34)C2=S)cc1
NC[C@](O)(CS(=O)(=O)O)c1ccc(Cl)cc1
CCOC(=O)C1C(C)N=C2SCC(=O)N2C1c1cccc(Br)c1 (stereo unspecified)

Potency, inconclusive:
Cc1cc(C)n2nc(C(=O)N(C)C(c3ccccc3)c3ccccc3)nc2n1 39.8 µM [inhibitor, single point]
COc1ccccc1/C=C/CN1CCCC(CCC(=O)NCc2ccccc2F)C1 (stereo unspecified) 39.8 µM [inhibitor, single point]
CCCNC(=O)COC(=O)c1cc(-c2ccc(OC)cc2)nc2ccccc12 35.5 µM [inhibitor, single point]
COc1cccc(C=Nc2ccccc2C(=O)Nc2nccs2)c1OC 31.6 µM [inhibitor, partial curve]
CCC(CC)c1nnc(NC(=O)c2cccc(S(=O)(=O)N3CCc4ccccc43)c2)s1 17.8 µM [inhibitor, partial curve]
Cc1nc2cnc(OCc3ccccc3)nc2n(Cc2ccc(F)cc2)c1=O 22.4 µM [inhibitor, single point]
COc1ccc(C(=O)N/N=C/C(Br)=C/c2ccccc2)cc1 25.1 µM [inhibitor, partial curve]
COC(=O)c1ccc(-n2c(C)nc(=O)c(-c3ccccc3)c2C)cc1 1.26 µM [inhibitor, full curve, poor fit]
CC(=O)C1(C)CC2=C(CCCC2(C)C)CC1C (stereo unspecified) 44.7 µM [inhibitor, single point]
COc1ccc(CNc2nc(-c3ccc(C(=O)N(C)C)cc3)nc3ccccc23)c(OC)c1 39.8 µM [inhibitor, single point]
Cc1[nH]c2ccccc2c1N=Nc1ccccc1C(=O)O 35.5 µM [inhibitor, single point]
O=C(CNS(=O)(=O)c1cccc2nonc12)NCc1ccc(F)cc1 35.5 µM [inhibitor, single point]
COc1ccc2cc(C(=O)NCc3ccco3)c(=Nc3ccc(C(=O)O)cc3)oc2c1 39.8 µM [inhibitor, single point]
COc1ccc(-c2nnc(SCC(=O)NCc3ccco3)n2C)cc1 25.1 µM [inhibitor, single point]
N#Cc1cccc(-c2nc3cnc(N4CCOCC4)nc3n(Cc3ccc(F)cc3)c2=O)c1 7.08 µM [inhibitor, single point]
Cc1cc2oc(=O)cc(-c3ccccc3)c2c(C)c1-c1ccc(O)cc1 56.2 µM [inhibitor, single point]
Cc1nc(SCC(=O)c2ccc(F)c(F)c2)[nH]c(=O)c1Oc1ccc(F)cc1 39.8 µM [inhibitor, single point]
C=CCn1cnc2c(c1=O)c1nc3ccccc3nc1n2/N=C/c1ccccn1 28.2 µM [inhibitor, partial curve]
CCCC/S(CC1CC1(Cl)Cl)=N\S(=O)(=O)c1ccc(C)cc1 (stereo unspecified) 25.1 µM [inhibitor, partial curve]
Cc1ccc(/C=C/C2=NN(Cc3ccccc3Cl)C(=O)CC2)cc1 39.8 µM [inhibitor, single point]
Fc1cccc(Cl)c1Cn1nnc2c(NCc3ccccn3)ncnc21 35.5 µM [inhibitor, single point]
COc1ccc(C(=S)Nc2ccc(C)cc2)cc1 39.8 µM [inhibitor, single point]
C/C(N)=C(/C#N)C(=O)CSc1nc2ccccc2c(=O)n1-c1ccc(C)cc1 39.8 µM [inhibitor, single point]
COC(=O)/C(=C/c1ccc2c(c1)c1ccccc1n2C)NC(=O)c1ccccc1 39.8 µM [inhibitor, single point]
Cc1cc(/C=C(\C#N)C(=O)Nc2ccc(Cl)cc2)c(C)n1-c1ccc(N2CCOCC2)c([N+](=O)[O-])c1 20 µM [inhibitor, partial curve]
O=C(c1cc2ccccc2o1)N1CCN(S(=O)(=O)/C=C/c2ccccc2)CC1 44.7 µM [inhibitor, single point]
O=C1c2ccc(O)c(O)c2C(=O)c2c(O)ccc(O)c21 6.31 µM [inhibitor, partial curve]
CCOc1cnc(-c2ccc(Cl)cc2)o1 22.4 µM [inhibitor, partial curve]
COc1ccccc1-c1nc(-c2ccc(Br)o2)no1 25.1 µM [inhibitor, partial curve]
COc1ccc2c(c1)CCc1c(C(=O)NCC(C)C)noc1-2 39.8 µM [inhibitor, single point]
Cn1c(-c2nnn(-c3ccc(F)cc3)n2)cc2ccccc21 39.8 µM [inhibitor, single point]
O=C(CSc1nnc(-c2cnccn2)n1Cc1ccco1)c1ccc(Cl)cc1 15.8 µM [inhibitor, partial curve]
Cc1nn(C)cc1/C=N/NC(=O)c1sc2ccccc2c1Cl 10 µM [inhibitor, partial curve]
O=C(CC1N=C2c3ccccc3N=C(SCc3ccccc3Cl)N2C1=O)NCc1ccco1 (stereo unspecified) 14.1 µM [inhibitor, partial curve]
Cc1ccc(-c2csc(N(Cc3ccco3)C(=O)c3cccs3)n2)cc1 28.2 µM [inhibitor, single point]
CCOc1c2ccc(C(=O)NCc3ccc(C(F)(F)F)cc3C(F)(F)F)cc2nn1C 35.5 µM [inhibitor, single point]
CCOc1ccc(C2Nc3ccccc3C(CC)(CC)O2)cc1 (stereo unspecified) 39.8 µM [inhibitor, single point]
O=C(Cc1cccs1)Nc1nnc(-c2ccncc2)s1 28.2 µM [inhibitor, partial curve]
CC1CCCCN1Cc1c(C#N)c2ccccc2n1C (stereo unspecified) 39.8 µM [inhibitor, single point]
COc1ccnc(Oc2ccc(C)cc2)c1C#N 25.1 µM [inhibitor, single point]
O=C(/C=C/c1ccc(OCCCF)cc1)Nc1ccnc(-c2cccnc2)n1 39.8 µM [inhibitor, single point]
CCCC(=O)C1=C(N2CCCCC2)CC(C)(C)C(C(=O)OC)C1=O (stereo unspecified) 37.7 µM [inhibitor, single point]
Cc1oc2c(CN3CCCC3)c(O)ccc2c(=O)c1-c1ccc(Cl)cc1 25.1 µM [inhibitor, partial curve]
